In paper PMC12820563, “FoxP3 forms a head-to-head dimer in vivo and stabilizes its multimerization on adjacent microsatellites” one finds binding signal data, which are given here for 31 sequences.

This is one part of the list.

For the test, the target named is T1, MBP-FoxP1dN (Mus musculus, UniProt P58462 326-579).
T1 sequence: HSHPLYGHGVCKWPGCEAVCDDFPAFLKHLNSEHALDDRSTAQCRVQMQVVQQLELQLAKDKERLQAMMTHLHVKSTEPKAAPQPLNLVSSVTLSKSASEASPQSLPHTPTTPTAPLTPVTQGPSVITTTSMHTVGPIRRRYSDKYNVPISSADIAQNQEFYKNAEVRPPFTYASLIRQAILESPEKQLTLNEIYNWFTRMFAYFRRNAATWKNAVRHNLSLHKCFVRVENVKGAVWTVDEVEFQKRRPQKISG
Nature of the test: PD-seq (MBP pull-down with sequencing); 20 mM Tris-HCl pH 7.5, 100 mM NaCl, 1.5 mM MgCl2, 0.4 uM protein, 0.1 uM dsDNA library, 30 min, room temperature, amylose pull-down; high values mean tight binding. The note with it: protein: recombinant; tags: His6-MBP; chain copies: 2; dsDNA, one strand shown. An outline of the steps:
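Mouse FoxP3 or FoxP1 fragment lacking the N-terminus, His6-MBP-tagged and expressed in E. coli, was incubated at 0.4 µM with 0.1 µM Klenow-filled degenerate double-stranded DNA library for 30 min at room temperature in Tris pH 7.5 buffer with NaCl and MgCl2. Complexes captured on amylose resin were washed three times and their DNA sequenced on Illumina. Binding is reads-per-million enrichment of pull-down over input, replicates pooled.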
Take “GATGATTGTTCTCCCAGCTGATGAATTCGGCCAATCGAGTAAACAAATTTTCCTAATCTTTCTGTTCAAGCGCCATCTAC”: the binding signal was 0.877 RPM ratio (pull-down/input).

Turning to “GATGATTGTTCTCCCAGCTGATGAATTCAAGCACTCGAGTAAACAAATTTTCCTAATCTTTCTGTTCAAGCGCCATCTAC”, the binding signal is 0.915 RPM ratio (pull-down/input).

Take “GATGATTGTTCTCCCAGCTGATGAATTTTATAGGTCGAGTAAACAAATTTTCCTAATCTTTCTGTTCAAGCGCCATCTAC”: the binding signal is 0.796 RPM ratio (pull-down/input).

With “GATGATTGTTCTCCCAGCTGATGAATTACGCAAATCGAGTAAACAAATTTTCCTAATCTTTCTGTTCAAGCGCCATCTAC”, the binding signal was 1.28 RPM ratio (pull-down/input).

With “GATGATTGTTCTCCCAGCTGATGAATTGCTTAGGTCGAGTAAACAAATTTTCCTAATCTTTCTGTTCAAGCGCCATCTAC”, the binding signal was 1.02 RPM ratio (pull-down/input).

For the sequence “GATGATTGTTCTCCCAGCTGATGAATTATCAAATTCGAGTAAACAAATTTTCCTAATCTTTCTGTTCAAGCGCCATCTAC”, the binding signal was 1.16 RPM ratio (pull-down/input).

Turning to “GATGATTGTTCTCCCAGCTGATGAATTTATCTCCTCGAGTAAACAAATTTTCCTAATCTTTCTGTTCAAGCGCCATCTAC”, the binding signal is 1.08 RPM ratio (pull-down/input).

In the case of “GATGATTGTTCTCCCAGCTGATGAATTTTGTTAATCGAGTAAACAAATTTTCCTAATCTTTCTGTTCAAGCGCCATCTAC”, the binding signal was 1.21 RPM ratio (pull-down/input).

In the case of “GATGATTGTTCTCCCAGCTGATGAATTAAGTCGGTCGAGTAAACAAATTTTCCTAATCTTTCTGTTCAAGCGCCATCTAC”, the binding signal is 0.85 RPM ratio (pull-down/input).

Take “GATGATTGTTCTCCCAGCTGATGAATTGGTGGTCTCGAGTAAACAAATTTTCCTAATCTTTCTGTTCAAGCGCCATCTAC”: the binding signal was 0.826 RPM ratio (pull-down/input).

On to “GATGATTGTTCTCCCAGCTGATGAATTGGGAAGCTCGAGTAAACAAATTTTCCTAATCTTTCTGTTCAAGCGCCATCTAC”, for which the binding signal was 0.761 RPM ratio (pull-down/input).

For the sequence “GATGATTGTTCTCCCAGCTGATGAATTTATAGTCTCGAGTAAACAAATTTTCCTAATCTTTCTGTTCAAGCGCCATCTAC”, the binding signal was 0.973 RPM ratio (pull-down/input).

“GATGATTGTTCTCCCAGCTGATGAATTTTTCCGCTCGAGTAAACAAATTTTCCTAATCTTTCTGTTCAAGCGCCATCTAC”: the binding signal was 0.852 RPM ratio (pull-down/input).

As for “GATGATTGTTCTCCCAGCTGATGAATTTGAAGCATCGAGTAAACAAATTTTCCTAATCTTTCTGTTCAAGCGCCATCTAC”, the binding signal was 1.09 RPM ratio (pull-down/input).

As for “GATGATTGTTCTCCCAGCTGATGAATTACGTTACTCGAGTAAACAAATTTTCCTAATCTTTCTGTTCAAGCGCCATCTAC”, the binding signal is 1.1 RPM ratio (pull-down/input).

As for “GATGATTGTTCTCCCAGCTGATGAATTTTCACTATCGAGTAAACAAATTTTCCTAATCTTTCTGTTCAAGCGCCATCTAC”, the binding signal is 0.987 RPM ratio (pull-down/input).

For the sequence “GATGATTGTTCTCCCAGCTGATGAATTTGGCATTTCGAGTAAACAAATTTTCCTAATCTTTCTGTTCAAGCGCCATCTAC”, the binding signal is 1.09 RPM ratio (pull-down/input).

With “GATGATTGTTCTCCCAGCTGATGAATTCATCCGGTCGAGTAAACAAATTTTCCTAATCTTTCTGTTCAAGCGCCATCTAC”, the binding signal was 0.818 RPM ratio (pull-down/input).

Turning to “GATGATTGTTCTCCCAGCTGATGAATTTCTTCATTCGAGTAAACAAATTTTCCTAATCTTTCTGTTCAAGCGCCATCTAC”, the binding signal is 0.886 RPM ratio (pull-down/input).

Regarding “GATGATTGTTCTCCCAGCTGATGAATTGACGGTGTCGAGTAAACAAATTTTCCTAATCTTTCTGTTCAAGCGCCATCTAC”, the binding signal is 1.06 RPM ratio (pull-down/input).

As to “GATGATTGTTCTCCCAGCTGATGAATTCGGGATTTCGAGTAAACAAATTTTCCTAATCTTTCTGTTCAAGCGCCATCTAC”, the binding signal was 0.851 RPM ratio (pull-down/input).

Turning to “GATGATTGTTCTCCCAGCTGATGAATTCATACATTCGAGTAAACAAATTTTCCTAATCTTTCTGTTCAAGCGCCATCTAC”, the binding signal was 1.01 RPM ratio (pull-down/input).

Consider “GATGATTGTTCTCCCAGCTGATGAATTATAAGTCTCGAGTAAACAAATTTTCCTAATCTTTCTGTTCAAGCGCCATCTAC”, for which the binding signal is 0.907 RPM ratio (pull-down/input).

As for “GATGATTGTTCTCCCAGCTGATGAATTAATTCATTCGAGTAAACAAATTTTCCTAATCTTTCTGTTCAAGCGCCATCTAC”, the binding signal is 0.901 RPM ratio (pull-down/input).

As to “GATGATTGTTCTCCCAGCTGATGAATTGTGGTCCTCGAGTAAACAAATTTTCCTAATCTTTCTGTTCAAGCGCCATCTAC”, the binding signal was 1.01 RPM ratio (pull-down/input).

“GATGATTGTTCTCCCAGCTGATGAATTTCTCGGGTCGAGTAAACAAATTTTCCTAATCTTTCTGTTCAAGCGCCATCTAC”: the binding signal was 0.834 RPM ratio (pull-down/input).

For “GATGATTGTTCTCCCAGCTGATGAATTAACCATCTCGAGTAAACAAATTTTCCTAATCTTTCTGTTCAAGCGCCATCTAC”, the binding signal is 0.866 RPM ratio (pull-down/input).

Turning to “GATGATTGTTCTCCCAGCTGATGAATTGAGGTCTTCGAGTAAACAAATTTTCCTAATCTTTCTGTTCAAGCGCCATCTAC”, the binding signal was 0.786 RPM ratio (pull-down/input).

Consider “GATGATTGTTCTCCCAGCTGATGAATTCACCGGTTCGAGTAAACAAATTTTCCTAATCTTTCTGTTCAAGCGCCATCTAC”, for which the binding signal is 0.877 RPM ratio (pull-down/input).

Take “GATGATTGTTCTCCCAGCTGATGAATTGCGCTCGTCGAGTAAACAAATTTTCCTAATCTTTCTGTTCAAGCGCCATCTAC”: the binding signal is 1.07 RPM ratio (pull-down/input).

On to “GATGATTGTTCTCCCAGCTGATGAATTCTGCCTGTCGAGTAAACAAATTTTCCTAATCTTTCTGTTCAAGCGCCATCTAC”, for which the binding signal was 0.791 RPM ratio (pull-down/input).
